From PMC4336329 (PLoS ONE, 2015) come the findings set out here.

Out of some 310,000 compounds screened, about 2,200 (0.71%) showed an effect of 50% or more. The effect is printed as a negative number. The list shows a part of the results.

Sequence of human ether-à-go-go-related gene (hERG) potassium channel (Q12809 whole entry, looked up): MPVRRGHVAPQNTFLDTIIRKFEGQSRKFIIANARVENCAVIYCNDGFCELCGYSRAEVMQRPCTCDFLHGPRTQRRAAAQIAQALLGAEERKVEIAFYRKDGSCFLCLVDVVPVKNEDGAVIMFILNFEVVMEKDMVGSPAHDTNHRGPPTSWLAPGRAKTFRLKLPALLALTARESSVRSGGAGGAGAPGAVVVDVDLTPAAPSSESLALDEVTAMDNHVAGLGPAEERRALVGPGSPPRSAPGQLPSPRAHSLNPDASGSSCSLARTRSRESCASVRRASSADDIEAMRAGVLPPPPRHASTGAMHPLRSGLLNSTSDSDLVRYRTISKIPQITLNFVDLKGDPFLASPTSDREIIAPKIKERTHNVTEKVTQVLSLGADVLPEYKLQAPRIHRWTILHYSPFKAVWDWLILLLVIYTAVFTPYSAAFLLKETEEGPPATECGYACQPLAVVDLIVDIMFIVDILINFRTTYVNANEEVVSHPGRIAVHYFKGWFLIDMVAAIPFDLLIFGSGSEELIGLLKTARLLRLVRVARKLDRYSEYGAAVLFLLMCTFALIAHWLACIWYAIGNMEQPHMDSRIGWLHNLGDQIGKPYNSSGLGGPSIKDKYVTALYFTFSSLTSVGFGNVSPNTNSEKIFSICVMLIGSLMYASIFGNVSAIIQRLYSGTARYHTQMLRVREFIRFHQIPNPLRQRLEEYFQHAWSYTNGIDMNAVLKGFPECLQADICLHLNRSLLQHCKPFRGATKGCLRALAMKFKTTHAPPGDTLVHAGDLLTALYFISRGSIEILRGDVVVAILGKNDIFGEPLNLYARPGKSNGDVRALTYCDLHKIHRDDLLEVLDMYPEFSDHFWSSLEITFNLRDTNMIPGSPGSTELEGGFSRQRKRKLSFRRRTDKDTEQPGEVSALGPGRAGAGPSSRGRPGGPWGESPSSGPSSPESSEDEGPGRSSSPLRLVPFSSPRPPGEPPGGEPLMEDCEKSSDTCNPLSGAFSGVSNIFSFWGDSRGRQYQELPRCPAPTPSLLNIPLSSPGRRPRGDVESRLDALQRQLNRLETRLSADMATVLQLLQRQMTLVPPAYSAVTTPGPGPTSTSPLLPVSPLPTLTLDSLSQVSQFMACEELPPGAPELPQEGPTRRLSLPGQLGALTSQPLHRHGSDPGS

The assay addresses human ether-à-go-go-related gene (hERG) potassium channel (human, UniProt Q12809). Kind of assay: primary screen, population patch clamp on CHO cells stably expressing hERG.
Turning to `CCOC(=O)C1CCN(C(=O)c2ccc(Cl)c(S(=O)(=O)N3CCOCC3)c2)CC1`, the “hERG current change (%, negative = inhibition) at 1uM” value is -13.7%.
`CCOC(=O)C1=C(c2ccccc2)OC(N)=C(C#N)C1c1cccs1` (stereo not shown): the “hERG current change (%, negative = inhibition) at 1uM” value was 13.7%.
As for `COC(=O)C1N2C(=O)[C@@H](NC(=O)COc3ccccc3)[C@H]2SC1(C)C` (stereo partly shown), the figure is 10.6%; as for `CCn1c(SC(C)C(=O)NCC2CCCO2)nc2scc(-c3ccccc3)c2c1=O` (stereo not shown), 5.21%.
Turning to `COC(=O)C1(C(F)(F)F)N=C(N(C)C)OC(N(C)C)=N1`, the “hERG current change (%, negative = inhibition) at 1uM” value was found to be 1.67%.
For the compound `O=C(COC(=O)c1c[nH]c(=O)[nH]c1=O)NCc1ccccc1`, the “hERG current change (%, negative = inhibition) at 1uM” value is -5.77%.
For the compound `CS(=O)(=O)N(Cc1ccco1)CC(O)Cn1c2ccccc2c2ccccc21` (stereo not shown), the “hERG current change (%, negative = inhibition) at 1uM” value is on record as 15%.
Regarding `CC1C2CC(CC1(C)C)N(C(=O)Nc1ccc3nccnc3c1)C2` (stereo not shown), the “hERG current change (%, negative = inhibition) at 1uM” value is 10.3%.
With `COc1ccc(S(=O)(=O)N(C)c2ccc(OC(=O)C(C)Oc3ccc(F)cc3)cc2)cc1` (stereo not shown), the “hERG current change (%, negative = inhibition) at 1uM” value turned out to be 2.48%.
As to `CCC(C)NC(=O)[C@@H]1CCCN1C(=O)C1CCN(S(=O)(=O)c2ccc(C)cc2)CC1` (stereo partly shown), the “hERG current change (%, negative = inhibition) at 1uM” value worked out at 17.8%.
On to `COCC(=O)Nc1ccc(C)c(Cl)c1`, for which the “hERG current change (%, negative = inhibition) at 1uM” value is on record as 9.95%.
Consider `CCc1cc(=O)oc2c3c(cc(OCC(=O)Nc4cccnc4)c12)OC(C)(C)CC3`, for which the “hERG current change (%, negative = inhibition) at 1uM” value is reported as 11.5%.
Turning to `COc1cccc(CN2CC(C(=O)NCCCn3cccn3)CCC2=O)c1` (stereo not shown), the “hERG current change (%, negative = inhibition) at 1uM” value is 7.66%.
For the compound `O=C(CSc1nc2cc(Cl)ccc2o1)N1CCOCC1`, the “hERG current change (%, negative = inhibition) at 1uM” value is recorded as -0.134%.
Consider `CCc1ccccc1NC(=O)c1ccc(Cn2cc([N+](=O)[O-])cn2)cc1`, for which the “hERG current change (%, negative = inhibition) at 1uM” value was -3.78%.
Consider `CCOC(=O)N1C2=NC(C(=O)OC)=C(C(=O)OC)[C@@H]3N(C)c4ccccc4[C@]23C[C@H]1C(=O)OC`, for which the “hERG current change (%, negative = inhibition) at 1uM” value came out at 8.18%.
Turning to `CC1CCCCN1C(=O)COC(=O)C1CCN(S(=O)(=O)c2ccc3c(c2)OCCO3)CC1` (stereo not shown), the “hERG current change (%, negative = inhibition) at 1uM” value amounted to 8.87%.
For the compound `CN(CC(=O)N1CCCCCC1)S(=O)(=O)c1cccc2cccnc12`, the “hERG current change (%, negative = inhibition) at 1uM” value is on record as 5.16%.
With `O=C(NCc1ccco1)c1cccc(NS(=O)(=O)c2cccc(F)c2)c1`, the “hERG current change (%, negative = inhibition) at 1uM” value is reported as -0.879%.
For `COc1ccc(C2CC3(O)NC(=O)C(C#N)(C3C)C2(C#N)C#N)cc1` (stereo not shown), the “hERG current change (%, negative = inhibition) at 1uM” value amounted to 7.33%.
Take `COc1cc(OC)cc(C(=O)NCC(=O)OCC(=O)c2cc(OC)ccc2OC)c1`: the “hERG current change (%, negative = inhibition) at 1uM” value is 6.59%.
`CC1CCc2c(sc(N)c2C(=O)OC(C)C)C1` (stereo not shown): the “hERG current change (%, negative = inhibition) at 1uM” value was -6.81%.
Take `CC1CCCN(C(=O)CSc2nnc3ccccn23)C1` (stereo not shown): the “hERG current change (%, negative = inhibition) at 1uM” value came to 8.63%.
`CC(=O)Nc1nc(SCC(=O)Nc2nnc(C)s2)[nH]c(=O)c1NC(=O)c1cccs1`: the “hERG current change (%, negative = inhibition) at 1uM” value stood at 5.04%.
For the compound `COc1ccc2oc(C(=O)OC(C)C(=O)Nc3ccc(N4CCOCC4)cc3)c(C)c2c1` (stereo not shown), the “hERG current change (%, negative = inhibition) at 1uM” value is listed as 5.38%.
Regarding `CCC(C(=O)NC1CCCC1)N(Cc1ccccc1Cl)C(=O)c1snc(C(N)=O)c1N` (stereo not shown), the “hERG current change (%, negative = inhibition) at 1uM” value stood at 8.96%.
As for `CC(=O)c1ccc(CC2SC(N)=NC2=O)cc1` (stereo not shown), the “hERG current change (%, negative = inhibition) at 1uM” value was 12%.
As to `O=C(CCS(=O)(=O)c1ccc(Br)cc1)NCCc1ccc(Cl)cc1`, the “hERG current change (%, negative = inhibition) at 1uM” value came out at 11.2%.
For the compound `CCCCOCCCNCC(=O)Nc1ccc(S(N)(=O)=O)cc1`, the “hERG current change (%, negative = inhibition) at 1uM” value turned out to be 14.7%.
As for `O=C(N/N=C/c1ccc([N+](=O)[O-])cc1)c1cc(C2CC2)nc2ccccc12`, the figure is 10.7%.
For the compound `CCNc1oc(COc2cccc(C)c2)nc1C#N`, the “hERG current change (%, negative = inhibition) at 1uM” value is given as 8.81%.
`CCc1ccc2oc(=O)cc(CN3CCCCC3)c2c1`: the “hERG current change (%, negative = inhibition) at 1uM” value is recorded as 12.3%.
Consider `O=C(CN1C(=O)NC(c2ccccc2)(c2ccccc2)C1=O)c1c[nH]c2ccccc12`, for which the “hERG current change (%, negative = inhibition) at 1uM” value is listed as 11.3%.
As to `CSc1cc(-c2ccc(Cl)cc2)c(C(=O)NC(C)C)s1`, the “hERG current change (%, negative = inhibition) at 1uM” value stood at 7.57%.
As for `Cc1c(C(C)(C(=O)O)c2c(C)n(C)c3ccccc23)c2ccccc2n1C`, the figure is 7.93%; as for `Cc1cccc(C(=O)OCc2cnc(Cl)s2)c1`, 3.47%; as for `COc1cc2c(cc1NC(=O)CN1CCN(S(=O)(=O)c3ccccc3F)CC1)oc1ccccc12`, 10.2%.
In the case of `CC(C)(CNC(=O)CO/N=C1/C=C2CCC3C(C(O)C[C@@]4(C)C3CC[C@]4(O)C(=O)CO)[C@@]2(C)CC1)C(O)C(=O)O` (stereo partly shown), the “hERG current change (%, negative = inhibition) at 1uM” value stood at 12.7%.
For `CCOC(=O)c1cc(=O)c2ccc(OCc3ccccc3)cc2o1`, the “hERG current change (%, negative = inhibition) at 1uM” value turned out to be 5.96%.
The value for `CS(=O)(=O)N1CCN(c2ccc([N+](=O)[O-])c(N3CCOCC3)c2)CC1` was 17.5%.
`CCN(CC)S(=O)(=O)c1ccc(NC(=O)CN(c2cccc(C)c2)S(C)(=O)=O)cc1`: the “hERG current change (%, negative = inhibition) at 1uM” value was found to be 14%.
As to `O=S(=O)(NCC1CCCO1)c1cc(Cl)ccc1Br` (stereo not shown), the “hERG current change (%, negative = inhibition) at 1uM” value is given as 6.78%.
For `Cn1ccc(NS(=O)(=O)c2cc(Br)ccc2Br)n1`, the “hERG current change (%, negative = inhibition) at 1uM” value is reported as 1.58%.
